Key:
[1] = biological target: T1, biotinylated human GPC-3 (R&D Systems) (human, UniProt P51654 25-559, randomly biotinylated via Lysine residues using EZ-Link Sulfo-NHS-LC-LC-Biotin); assay: direct ELISA on biotinylated human GPC-3 captured via Neutravidin
T1 construct: Bought protein; also called biotinylated recombinant human GPC-3 (R&D 2119-GP/CF)
Method: An ELISA was performed to verify the binding affinity and specificity of the selected Tlc muteins. Therefore, a constant concentration of 1 μg/ml biotinylated human GPC-3 (R&D Systems) was captured on the surface of a polystyrol plate (Greiner, GE) via BSA blocked Neutravidin (Thermo Scientific, 5 μg/ml). Two step dilution series of purified Tlc muteins were incubated with the captured GPC-3 for 1 h at room temperature and detected either via the Strep-tag II using a rabbit anti-strep-tag II polyconal antibody (GenScript, USA) or by using a scaffold-specific polyclonal rabbit antibody. In both cases an anti-rabbit-IgG-HRP conjugate (Abcam, UK) was employed as secondary detection antibody.
The absorption ΔA at 320 nm was measured in an ELISA reader (Tecan, GE) and the data were fitted with Graphpad Prism software (Statcom, USA).

[2] = biological target: T2, human GPC-3 on cells (SK Hep1:hGPC-3 transfectants; HepG2) (human, UniProt P51654 25-554); assay: flow cytometry titration on human GPC-3 transfected SK-Hep1 cells, geometric mean fluorescence, detection with anti-Tlc antiserum and anti-rabbit IgG-PE
T2 construct: whole, on cells; The same molecule is used for the transfected SK-Hep1 cells and the GPC-3 positive HepG2 cells; The cell line is named under assay; also called Glypican-3
Method: Empty vector control cells were also obtained and analyzed in parallel. Expression of GPC-3 was also confirmed using a known mouse anti-GPC-3 clone 1G12 monoclonal antibody (DOS).
In order to assess binding of muteins to the GPC-3 on the cell surface, cells were incubated on ice with increasing concentrations of each lipocalin mutein for 2 hr. Following two washing steps cells were incubated with a secondary rabbit anti-Tlc scaffold antiserum was employed for 30 min. […] Flow cytometry analysis was performed and geometric mean values were compiled in FlowJo (Treestar software) and fitted to a sigmoidal dose response model in the Prism 5 program (GraphPad) to obtain EC50 values.

B1: protein of SEQ ID NO: 10 (negative-control protein) (other)
chain: ASDEEIQDVSGTWYLKAMTVDRECPEMNLESVTPMTLTTLEGGNLEAKVTMLISGRSQEVKAVLEKTDEPGKYTADGGKHVAYIIRSHVKDHYIFYSEGECHGKPVPGVWLVGRDPKNNLEALEDFEKAAGARGLSTESILIPRQSETSSPG
[1]
  binding result: no binding (tested: about 500 nM)
[2]
  binding result: no binding (tested: 10000 nM)

— patent publication US20170066807A1 (Pieris, published 2017)
